Reference: the RNAGym collection of RNA variant scans (doi:10.1073/pnas.2313332121)
Variants at the floor of the assay are shown more often than the library holds them.

B1: TPR 5TU (parent)
chain: GGAUCUUCUCGAUCUAACAAAAAAGACAAAUCUGCCACAAAGCUUGAGAGCAUCUUCGGAUGCAGAGGCGGCAGCCUUCGGUGGCGCGAUAGCGCCAACGUUCUCAACUAUGACACGCAAAACGCGUGCUCCGUUGAAUGGAGUUUAUCAUG

Variants of: B1
Assay: polymerase ribozyme fitness, log enrichment relative to wild type (log ratio); higher = more active; in vitro selection for triplet polymerase activity
Procedure, shortened: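 To select mutant libraries of each subunit of a heterodimeric triplet polymerase ribozyme, built by PCR and transcribed, each was annealed with a biotinylated primer, partner subunit and triplets, then incubated frozen at −7 °C. Extended constructs were gel-excised, captured on streptavidin beads and amplified by RT-PCR, in one round carried out in triplicate. Illumina sequencing of input and output libraries kept genotypes with ≥10 input reads and ≥1 read per output. Fitness is the base-2 logarithm of genotype enrichment relative to wild-type enrichment, from inverse-variance-weighted replicate averages.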

Variant	polymerase ribozyme fitness (log ratio)
C32A U55A U61G A73G G94C U104G	≤ -4.2
U31C G50A C96G	-0.777
C32G G80U U111A	≤ -4.2
U31A G59C C75U A91U U109G G112A	≤ -4.2
C32U U61A G94C C105U A107U A110U	≤ -4.2
C32G C57G A66U C87U U109G	≤ -4.2
C32G C35A A73U C85A G88C A106U G143A	≤ -4.2
A30U U53C C79U C85U G92A G143A	≤ -4.2
A30U A47C G50A C54G G92C C123G	≤ -4.2
U31G G83U G126C	-0.857
A30G G141C	-3.51
C32U A39G A40C C54A G94U A142U	≤ -4.2
C32G G34A U44G G80U C116U C118G	≤ -4.2
C32G G70U U82G G94A A110U G136A	≤ -4.2
A30U C36U G80U C87A A91U C116G	≤ -4.2
A30G U44A U53A U56A A89U G94C C105U C123U G136U	≤ -4.2
U31C U44A G50A A97C U102G A113C	≤ -4.2
C32U U33A G50C A52U C54A G81C	≤ -4.2
U33A U44A U127C G143U	≤ -4.2
C32G U53A C57U C76G C108G A138C	≤ -4.2
C32U U55G U61C G84U G100C	≤ -4.2

Variant	polymerase ribozyme fitness (log ratio)
U33A U56A U90A A122C U151G	≤ -4.2
A30U A122U	-2.62
C32G A52C U61A G62C C63A C75U C93U	-4.14
U33A A142C C149A	≤ -4.2
C32U U90G	≤ -4.2
U33G C35U C51U C69A G71A C103G	≤ -4.2
A30U A40U U55A C72U G84U C87A A89U G117U C125G	≤ -4.2
U31A U90G	≤ -4.2
U33A C63G U101G U144C C149G	≤ -4.2
U33A G92A U102G A106U G133U U139C	≤ -4.2
C32A A89C C95A	≤ -4.2
U33G G74U C93U A107U A120C	≤ -4.2
U31C G80C U144A	≤ -4.2
U31C C54G G83C G94A	≤ -4.2
C32A C75G G92A A150U	≤ -4.2
U31G U44G G62A C63U G81A	≤ -4.2
U33G A40G C54U U55G A98G A147U A150C	≤ -4.2
U31G G50U U61A C85A C103G G152U	≤ -4.2
U31G U61G A91G U144A	≤ -4.2
C32U U101A	-3.76
U33G G42U G70A G88C G94U	≤ -4.2

Variant	polymerase ribozyme fitness (log ratio)
U33G C72U C95A G126U A137G	≤ -4.2
U31A G34U A39U U55G G84U C96A A98U	≤ -4.2
U33A U102C A107U C125A	≤ -4.2
A30U C69U C75G C99A	≤ -4.2
C32A G74C G81C G94A A121U	-4.03
C32U G46C G136A A150U	≤ -4.2
U33A C38A U55G C95U C118G	≤ -4.2
U33G G48A G59A G84A G88A C149U	≤ -4.2
U31C A52C C54U G59A U78A A106C U151A	≤ -4.2
U31G C95G C103A C105G	≤ -4.2
A30U A37C A52C A60G G84A A91C C116A C123G U134A	≤ -4.2
C32G C35A G48C A73U	≤ -4.2
U33A A60C U104A C123G	≤ -4.2
U31C C69U G86U C96U A142G	-2.99
U33G C35A A91U C108G U144A	≤ -4.2
U33C A60U A73U A122G	-2.54
U31G G42C G59C C79A G94A A98G A115G	≤ -4.2
C32U A40U U56C C85U U90A C114U	-4.06
C32G A47C C96U U101G C108G	≤ -4.2
U33A G80A C96U	≤ -4.2
U31G U44A G84C C85A C125U	≤ -4.2

Variant	polymerase ribozyme fitness (log ratio)
C32A C87A C93U	≤ -4.2
A30U U56A G62A G74C C87G U144C	≤ -4.2
U31G A49C C57G C75G C79U C85G G88C U111G	≤ -4.2
U31C A41G A49G U77C C87A C108U G126U G133U	≤ -4.2
C32U A39C C72G G84U U102A C123U	≤ -4.2
C32G C105U	≤ -4.2
U33G C38U C43A C85A C93A A110U	≤ -4.2
U31A C36U A91G G92A U104A C123A C149G	≤ -4.2
C32G G59A A91C C96U A115C G141U	≤ -4.2
U31A G50C U78G G94U C99G U148A	≤ -4.2
U31C C85U	0.604
A30U A41U A52G U61A C85U A97U G126A	≤ -4.2
U33G A52G U55A C79G G80U G88C A110U	≤ -4.2
C32U C85A C99G G133C U139G	≤ -4.2
U31C A49C U90C U109C A119C G143A U144C	≤ -4.2
U31A C87G C114A	-4.03
C32G U45G U56A G58A A73G G88A C116U G136U	≤ -4.2
U31G G65U	≤ -4.2
A30U G50C C57U G67A G68C C93U A106U G126A	≤ -4.2
C32G U33G	≤ -4.2
